According to the supplement of paper PMC10126150:
Sequences with one replicate were seen in a single cluster, so their values are uncertain.

Tested on: ATP
Experiment: switch fluorescence ratio, 500 uM ATP over buffer (Cy3 cluster intensity, sum of 5 cycles each) (fold (ratio)); higher = stronger signal-on switching upon ATP binding; sequences stand for … in TCGTCGGCAGCGTCAGATGTGTATAAGAGACAGTTTTTTTTTTTTTTTTTTTTTTTTT…TC
Conditions: aptamer strand: ATP DNA aptamer (quencher-CACCTGGGGGAGTATTGCGGAGGAAGG + anchor), 100 nM annealed; ATP concentration: 500 uM; one replicate
Outline: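 Between each of five buffer/ATP cycles, the flow-cell was stripped with NaOH and re-annealed. Each cycle imaged Cy3-labelled switching-strand clusters, annealed to 100 nM quencher-labelled ATP aptamer on a modified Illumina MiSeq flow-cell, first in selection buffer and then after 15 min with 500 uM ATP at 22 °C. The fluorescence ratio is summed target-cycle over summed buffer-cycle Cy3 intensity per cluster, averaged per switch-domain sequence, with clusters outside 100-1000 RFU excluded.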
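Further: ATP exposure 15 min at 22 °C before imaging.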

Row | Sequence | switch fluorescence ratio
1 | GATGGATGCG | 1.06
2 | AGGGTTCTAT | 0.955
3 | CGTCAATTA | 1.17
4 | CTTAAAGAGG | 1.01
5 | CGGTATTTGT | 0.958
6 | AGGAGAAATC | 1.01
7 | TCAGATTGTG | 1.01
8 | GTTCTCTCCG | 1.18
9 | TGCTTATCTC | 1.03
10 | GATATAGCGT | 0.961
11 | TCCTTCTTTT | 1.21
12 | TTGGGCACAC | 1.47
13 | GATCCATCAT | 1
14 | TGCACAGGGG | 2.69
15 | CAATCAAGAT | 1.01
16 | CCTCGGGGTT | 1.15
17 | CCTAGTCGTG | 1.04
18 | AATCAGGTG | 3.76
19 | CGTATGTAAG | 0.917
20 | ACCTGGCATT | 1
21 | GCCAGTACTG | 0.98
22 | GGTCACTTA | 1.03
23 | CTCTATGGAT | 1.01
24 | AAGCAACTGC | 1.11
25 | TTATGCGCAG | 1.08
26 | TGGCATGATG | 1.01

Row | Sequence | switch fluorescence ratio
27 | TGCCCGCGCT | 0.971
28 | TGAGTTTAAG | 0.975
29 | TACAGAGTAT | 1.04
30 | GTGAAGATTC | 0.991
31 | CACTGTATGC | 1.17
32 | AACAGGATA | 1.01
33 | CCACAATATG | 2.26
34 | ATCAGCATTC | 2.93
35 | AATATGTGCT | 0.987
36 | CAGGGGTGCC | 1.01
37 | GTATGTGTAC | 0.957
38 | CTTGACTTTA | 1.06
39 | TTACTCTAAA | 1.07
40 | AGCCACAAGG | 1.07
41 | TTCCTTGGAC | 1.07
42 | GAGTACTGGG | 0.961
43 | CTTGATGCAC | 1.09
44 | TGATTTTGAT | 0.999
45 | GATAGTCAAA | 0.975
46 | TGGTCTTA | 0.999
47 | GTGAATTATT | 1.01
48 | GGTCCCCGGG | 1.16
49 | TCGGCGGTCC | 0.973
50 | GTGTGAGGGA | 0.971
51 | GTGAGGGGTC | 0.977
52 | CTGTGGTCGG | 0.957

Row | Sequence | switch fluorescence ratio
53 | GGTCATTCTT | 1.03
54 | TCAGTGTGGG | 0.998
55 | GCAGTGGCGC | 1.02
56 | GATCAATTCT | 1.02
57 | AAGATCTCCG | 1.03
58 | GCGATCCTAG | 0.986
59 | TTGCGCAAAA | 1.12
60 | TCTTATTGAT | 0.981
61 | AAGAGGTTAA | 0.965
62 | TAGTGGCGGG | 1.02
63 | GCGGCGTGGG | 1.01
64 | ACCAGAATT | 0.988
65 | ACTTTGATAG | 1.03
66 | AAACCTTCAT | 1.05
67 | AAGTTCATCA | 1.01
68 | GCTCAGTGTG | 1.07
69 | TTATCCGCCC | 1.91
70 | CAATCTTAA | 1.02
71 | CTGGGTAGCT | 1.01
72 | TCGTTACGT | 0.968
73 | TCATATATTG | 0.967
74 | ACCTAATAGT | 1.05
75 | TCATTGGTCT | 1
76 | GAACAAGGCT | 0.985
77 | CAGATATGCT | 1.04
